# Assay results reported in US20040014158A1 (published 2004).
# T1: C-Biotag-BS-LuSy (lumazine synthase of Bacillus subtilis with a C-terminal 13-residue peptide biotinylated in … (Bacillus subtilis, UniProt P11998 1-154, biotin covalently bound to the lysine of the peptide … (biotinylated in vivo)))
# T1 construct: mature; no protein entry; SDS-denatured 18.5 kDa monomer in the blots; also called C-Bio-BS-LuSy; lumazine synthase fusion protein with Bio-Peptide
# T1 sequence: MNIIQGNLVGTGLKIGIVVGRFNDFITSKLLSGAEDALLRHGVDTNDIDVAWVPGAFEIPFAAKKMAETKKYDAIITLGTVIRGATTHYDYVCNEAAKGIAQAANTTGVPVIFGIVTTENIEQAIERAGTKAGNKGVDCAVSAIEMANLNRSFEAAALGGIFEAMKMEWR
# B1: avidin (Sigma) (other, UniProt P02701 25-152, looked up)
# chain: ARKCSLTGKWTNDLGSNMTIGAVNSRGEFTGTYITAVTATSNEIKESPLHGTQNTINKRTQPTFGFTVNWKFSESTTVFTGQCFIDRNGKEVLKTMWLLRSSVNDIGDDWKATRVGINIFTRLRTQKE
# notes: Coated on microtiter wells; also called avidin stock solution; avidin coated microtiter plate
# Molecular target: T1, C-Biotag-BS-LuSy (lumazine synthase of …)
# Test: sandwich ELISA: avidin coated, refolded fusion protein in log 2 dilution, streptavidin-AP detection, 405 nm
binder,measurement,value
B1,binding result,binds
